In the supplement of paper PMC10126150 one finds switch fluorescence ratio data, which are given here for 120 sequences.

In the data set the test system is ATP. Briefly: switch fluorescence ratio, 500 uM ATP over buffer (Cy3 cluster intensity, sum of 5 cycles each) (fold (ratio)); higher = stronger signal-on switching upon ATP binding; sequences stand for … in TCGTCGGCAGCGTCAGATGTGTATAAGAGACAGTTTTTTTTTTTTTTTTTTTTTTTTT…TC. Conditions: aptamer strand: ATP DNA aptamer (quencher-CACCTGGGGGAGTATTGCGGAGGAAGG + anchor), 100 nM annealed; ATP concentration: 500 uM; one replicate. In short, it runs like this:
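Imaging in selection buffer was followed by imaging after 15 min with 500 uM ATP at 22 °C, for Cy3-labelled switching-strand clusters annealed to 100 nM quencher-labelled ATP aptamer on a modified Illumina MiSeq flow-cell. Five of these buffer/ATP cycles ran, separated by NaOH stripping and re-annealing. The fluorescence ratio per cluster is summed target-cycle over summed buffer-cycle Cy3 intensity, averaged per switch-domain sequence; clusters outside 100-1000 RFU were removed.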

Values marked as one replicate rest on one cluster of the flow cell; about a third of the high ones do not repeat.
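Also: ATP exposure 15 min at 22 °C before imaging.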

In the case of GAGCTACGAC, the switch fluorescence ratio is 1.1.

As for GCCGGGACCC, the switch fluorescence ratio came to 0.989. In the case of AACTGGGATC it was 1.05; in that of TAGTTGATTA, 1.01; in that of CGGTAGCTA, 1.15. The value for GCGGACGGT was 0.999; that for CCATGTAGAC was 1.15; that for TTGGACGGAC was 1.13.

As for TATGCATAAG, the switch fluorescence ratio stood at 0.968. Turning to CGGGTGGCT, the switch fluorescence ratio was found to be 1. The value for CCAATCGCTC was 2.16; that for AACGGATTCG was 1.02.

Regarding TAGAGGGTAA, the switch fluorescence ratio was 1.01. Take GTATTGGGCG: the switch fluorescence ratio was 1.05. Consider GGTGTGTAAT, for which the switch fluorescence ratio amounted to 0.958. With TGCCTAGGTC, the switch fluorescence ratio turned out to be 1.04. Take GCTGGTACGA: the switch fluorescence ratio was found to be 1.1.

Consider TTGGTGGATA, for which the switch fluorescence ratio is 0.997. In the case of GAGATCCCCC, the switch fluorescence ratio came to 1.04. In the case of GCATAGCGTA it was 1.03.

Regarding TCCTGAGTCT, the switch fluorescence ratio stood at 1.08. For AGACCATGTC, the switch fluorescence ratio amounted to 1.01.

GTGCGCTGTA: the switch fluorescence ratio was 1.01. Consider GCTCTACTAA, for which the switch fluorescence ratio was determined as 1.06. Take TTTCAACCC: the switch fluorescence ratio stood at 1.06. As to CGCGTGTAGC, the switch fluorescence ratio was found to be 1.05. ACACAAGAGC: the switch fluorescence ratio was found to be 0.98. In the case of CCATTTTGAT it was 1. As for GCGAGAGTCT, the switch fluorescence ratio turned out to be 1.16. In the case of TGTCCGGATA, the switch fluorescence ratio was 1.01. In the case of AGGTTGGAA it was 0.94; in that of TCTCAGGTGA, 0.981. Take GGGAAACACT: the switch fluorescence ratio was found to be 1.02. As for TTATGTATGG, the switch fluorescence ratio amounted to 0.976. In the case of AGTGAGGAGG, the switch fluorescence ratio amounted to 0.959. In the case of AGATCAGTCT it was 1; in that of GATTCCGAGT, 1.11; in that of GATACCATCA, 1.02.

With TGTATTTGAA, the switch fluorescence ratio is 1.01. On to AATAATTGTA, for which the switch fluorescence ratio came to 1.07. As to TAACGTTGGC, the switch fluorescence ratio worked out at 1.15.

As to TTTAGCATAG, the switch fluorescence ratio amounted to 1.88. Regarding GAGAGGTGGA, the switch fluorescence ratio was found to be 1.01. The value for AGACTCCCGT was 1.08; that for CAAGTGAGGA was 1.03. On to AGCAGGTTTT, for which the switch fluorescence ratio is 0.989. For the sequence CTCGGTACCA, the switch fluorescence ratio came to 0.998. In the case of CGTCGCGCTC it was 1.23. In the case of ATGATATTCA it was 1.05. For the sequence TCTTGTTTT, the switch fluorescence ratio came out at 1.01.

Consider CGGCCCAGTG, for which the switch fluorescence ratio was determined as 2.7. As to TGTGGTGCAC, the switch fluorescence ratio worked out at 1. Regarding GGTTATTTTA, the switch fluorescence ratio amounted to 0.988.

With AAGTCTGGTG, the switch fluorescence ratio was found to be 0.931. In the case of GGAACCAATT it was 0.999. TGTTGAGCTT: the switch fluorescence ratio came out at 1.01.

For the sequence GGTGGCGGAG, the switch fluorescence ratio worked out at 0.994. With GATTGTTCCG, the switch fluorescence ratio came out at 0.954.

With AGGATGTGT, the switch fluorescence ratio amounted to 0.989.

Regarding ACGGTGCCGG, the switch fluorescence ratio was determined as 1.01. Regarding TTAGGTACGT, the switch fluorescence ratio was found to be 0.996. On to AGGACTAGGT, for which the switch fluorescence ratio is 0.985. ACTTCGTTCA: the switch fluorescence ratio was 1.03.

For the sequence TAAATGATGA, the switch fluorescence ratio came to 1.01.

For TCCTGGGTGC, the switch fluorescence ratio came out at 2.43. On to ATGTGGCTTT, for which the switch fluorescence ratio amounted to 0.963. On to ATCACTGGAT, for which the switch fluorescence ratio is 1.06. On to GTTCTTCGGA, for which the switch fluorescence ratio came out at 0.997.

On to TGTGAGCACC, for which the switch fluorescence ratio amounted to 1.15. On to TCCGGGCTTT, for which the switch fluorescence ratio was determined as 1.05. Consider TACACGCCGC, for which the switch fluorescence ratio worked out at 1.25.

With CTGATATTAG, the switch fluorescence ratio came out at 0.998.

With CTGGCCCGTT, the switch fluorescence ratio was determined as 0.975.

For CTTCCTAAT, the switch fluorescence ratio worked out at 1.09. The value for CGGATAGCTT was 1.02. Turning to CAAATCGGGT, the switch fluorescence ratio is 1. Take TACTGTAGTC: the switch fluorescence ratio amounted to 1.1.

Take GCTAGGTATG: the switch fluorescence ratio was 1.01. In the case of TTTGAGGCTT it was 1.01; in that of TAGAATTTAT, 0.962. As to ACTGTCCTCT, the switch fluorescence ratio was found to be 1.01. The value for CACCGACGAA was 1.44; that for ATGCTTTGTA was 1.02. In the case of TTTCATTTCG it was 1.02; in that of ACGAAACCAT, 1.22.

Regarding TGTACCCCTC, the switch fluorescence ratio came to 1.01. Regarding GTCTGGCTCG, the switch fluorescence ratio was determined as 0.943. On to ATGTGTTGAG, for which the switch fluorescence ratio was 1. As to AGAGAGCAGG, the switch fluorescence ratio was determined as 1.11. For GGTTCTTGGG, the switch fluorescence ratio turned out to be 0.995. Take TCTGGTTGTT: the switch fluorescence ratio turned out to be 1.01.

Regarding ATTTGAGGTC, the switch fluorescence ratio came to 1.05. Turning to GGGTACCAAC, the switch fluorescence ratio came out at 1.03. Take GTGGCACTGC: the switch fluorescence ratio is 1.01. On to TCCCACTTAG, for which the switch fluorescence ratio stood at 1. In the case of TAGCAGATTT it was 0.962; in that of TACTTGCGTC, 1; in that of TCGCTCGCTA, 1.72. Consider GCACTTTGG, for which the switch fluorescence ratio was 0.998. In the case of GCGACAGGCG it was 1.05. With GACATTTGCG, the switch fluorescence ratio was 1.02.

For the sequence CGCAGGCCGT, the switch fluorescence ratio is 0.971. For the sequence CCATTGCCCT, the switch fluorescence ratio was 1.02. AGTATCAAAG: the switch fluorescence ratio amounted to 1.04.

ATGGTGGAGA: the switch fluorescence ratio was 0.982. As to GTACTTAAAC, the switch fluorescence ratio was determined as 1.1. Take TAGGTATATG: the switch fluorescence ratio was determined as 0.967.

Take AATGGCGGAT: the switch fluorescence ratio stood at 0.997.

As for AACGATAACG, the switch fluorescence ratio stood at 1.02. CGACGGGCTC: the switch fluorescence ratio was 1.86. Consider TAGTTTCGAA, for which the switch fluorescence ratio amounted to 0.974. Consider TAGGGTTACT, for which the switch fluorescence ratio was 1.01. As for AGTTTGGCGA, the switch fluorescence ratio worked out at 1.01.

As to GCACTGCGTA, the switch fluorescence ratio is 1.06. Turning to CTAACAGTTC, the switch fluorescence ratio came to 1.03.

For the sequence CATACAAATT, the switch fluorescence ratio turned out to be 0.997.

Consider TTAGCTGGAG, for which the switch fluorescence ratio was found to be 1.03. Turning to TGCGGATCTG, the switch fluorescence ratio amounted to 0.992. For the sequence GTCGAATGGA, the switch fluorescence ratio is 0.982. The value for TAGACGCGCA was 1.04.
